Experimental data reported in PubChem BioAssay AID493208 (National Center for Advancing Translational Sciences (NCATS), 2011).
Among all 44,000 compounds or so, about 340 (0.77%) were called active. About 5% were inconclusive and are not listed. Calls follow the shape of the dose curve; as a rule, active = well fitted inhibition curve with a large enough effect; inconclusive = small, poorly fitted or top-dose-only effect; inactive = flat fitted curve, though single readings scatter. The list shows a part of the results.

experiment: Acumen qHTS Assay for Inhibitors of the mTORC1 Signaling Pathway in MEF (Tsc2-/-, p53-/-) Cells: Sytravon; conditions: phospho-rpS6 immunofluorescence/PI, 24 h; series mostly up to 38.3 µM; activity change, negative = inhibition: at the top concentration;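 also: plate controls were DMSO for no effect and rapamycin for full effect; nearly all actives have a fitted effect of over 50% in size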
Outline: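 Tsc2-/-, p53-/- MEFs (empty-vector stable line) in DMEM + 10% FBS were treated with compounds 24 h at 37 degree Celsius, fixed, and immunostained for phospho-rpS6 (Alexa-488) with propidium iodide counterstain. Laser-scanning cytometry gave % positive cells, normalized against 7.5 nM rapamycin and DMSO.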

Activity change, negative = inhibition, inactive:
COc1cc2c(cc1OC)n(CC(=O)c1ccc(C)cc1)c(=O)n1nc(CCn3nc(C)cc3C)nc21 0.105%
Fc1ccccc1C1=NC(c2ccc(C(F)(F)F)cc2)=Nc2ccccc2N1 5.23%
CCOc1ccccc1CN1CCc2nc(Nc3ccccc3)ncc2C1 1.55%
COc1cc(CN2CCN(S(=O)(=O)c3ccc(F)cc3)CC2)cc(OC)c1OC 4.13%
O=C(NCc1ccccn1)c1nn(-c2ccccc2F)nc1CO -4.01%
COc1ccc(CCN2C(=O)CN(C3CCCCCC3)C(=O)C2c2ccc(C)cc2)cc1OC (stereo unspecified) 9.16%
COC(=O)c1cc(OC)c(OC)cc1NC(=O)c1ccc2c(c1)CCN2S(=O)(=O)c1ccccc1 -1.1%
Fc1ccc(-n2ncc3c(N4CCN(Cc5ccccc5)CC4)ncnc32)cc1 5.9%
CCc1ccc(CNC(=O)c2ccc3c(c2)nc2n3CCCCC2)cc1 3.65%
COc1ccc(OC)c(CCNC(=O)CN2C(=O)COc3ccc(S(=O)(=O)N4CCCCCC4)cc32)c1 5.32%
COc1cccc(CNC(=O)CSc2n[nH]c(-c3ccccc3Cl)n2)c1 2.76%
Cc1ccc(C)c(Cn2cnc3ccccc3c2=O)c1 -9.14%
COc1cccc(CNC(=O)CCNS(=O)(=O)c2ccc3c(c2)CCCC(=O)N3)c1 -2.82%
CC1=C(C(=O)Nc2ccccc2)C(c2cccs2)n2nc(SCc3ccccc3)nc2N1 (stereo unspecified) 0.185%
O=C(Nc1c2c(nn1-c1ccc(Cl)cc1)CS(=O)(=O)C2)c1cccc(Cl)c1 -0.361%
CCc1cccc(NC(=O)CN2c3ccccc3S(=O)(=O)c3ccccc32)c1 -11.2%
CC(=O)N1c2ccc(S(=O)(=O)NCCC(=O)Nc3ccc(C)cc3Br)cc2CC1C (stereo unspecified) -19.5%
O=C(CSc1ccc2nnc(CCNS(=O)(=O)c3ccccc3)n2n1)Nc1ccccc1C(F)(F)F 1.93%
Cc1ccc(CNC(=O)Cn2ccn(-c3cc(C)cc(C)c3)c(=O)c2=O)cc1 4%
COc1ccccc1NC(=O)Cn1nc(C)n2cccc2c1=O -6.44%
COc1ccc(OC)c(NC(=O)c2cc3cc4ccc(C)cc4nc3s2)c1 -0.276%
CCOc1ccc(-c2cc(NC(=O)Nc3ccccc3C(F)(F)F)c(C(=O)OC)s2)cc1 -12.5%
COC(=O)c1ccc(Cn2c(SCC(=O)Nc3ccc(F)cc3)nc3ccccc32)cc1 0%
Cc1ccc(N2CC(C(=O)NCc3nnnn3-c3ccc(C)c(C)c3)CC2=O)cc1 (stereo unspecified) 5.39%
CCCCN(CC)Cc1ccc(CNS(=O)(=O)c2cc3c(cc2Cl)NC(=O)CO3)o1 -14.6%
CCOc1ccc(NC(=O)Cn2c(=O)n(Cc3ccc(C(=O)NCc4ccc5c(c4)OCO5)cc3)c(=O)c3ccccc32)cc1 -10.4%
CCCCOc1ccc(C(=O)Nc2ccc3c(c2)CCCN3S(=O)(=O)c2ccc(C)cc2)cc1 4.25%
CCOc1ccc(NC(=O)Cn2c(=O)cc(C)c3c(C)nn(-c4ccc(CC)cc4)c32)cc1 -2.13%
COc1ccc(C(=O)Nc2ccccc2C(=O)OCc2cc(=O)n3nc(C4CC4)sc3n2)cc1 1.44%
CCOC(=O)N1CCc2c(sc3c2c(=O)n(-c2ccc(CC)cc2)c(=O)n3Cc2cc(C)ccc2C)C1 -4.81%
CCOc1ccccc1NC(=O)C1CCCN(S(=O)(=O)c2cn(C)cn2)C1 (stereo unspecified) 0%
CCOC(=O)c1c(C)oc2nc(C)nc(Nc3cc(C)ccc3OC)c12 0%
CCc1nnc(NC(=O)CSc2nc3c([nH]c4ccccc43)c(=O)n2-c2ccc(OC)cc2)s1 -2.61%
O=C(C1CCCCC1)N(Cc1cccnc1)c1nc2ccc(F)cc2s1 0.444%
CCc1cccc(NC(=O)COc2cc(=O)n(CC)c3ccccc23)c1 -6.68%
Cn1ccc2cc(S(=O)(=O)N3CCN(C(=O)Nc4ccccc4F)CC3)ccc21 -10.9%
Nc1nc(N)c(S(=O)(=O)c2ccccc2)c(Nc2ccc(F)cc2)n1 2.74%
CCOC(=O)c1c(Nc2cccc(C)c2)nnc(-c2ccccc2)c1-c1ccccc1 -3.45%
CCCc1cc(=O)[nH]c(Nc2ccc(O)cc2C)n1 -1.01%
O=C(CSc1nc2ccccc2nc1Cc1ccccc1)N1CCCc2ccccc21 4.76%
CCOC(=O)c1cccc(NC(=O)c2sc3nc[nH]c(=O)c3c2C)c1 4.13%
COc1cc(-c2ccno2)ccc1S(=O)(=O)N1CCN(c2ccc(F)cc2)CC1 -0.196%
CCc1ccc2occ(CC(=O)N(Cc3ccc(N(C)C)cc3)C3CCS(=O)(=O)C3)c2c1 (stereo unspecified) 4.34%
CCOC(=O)N1CCC(NC(=O)c2ccc3c(c2)N(Cc2ccc(Cl)cc2)C(=O)c2ccccc2S3=O)CC1 (stereo unspecified) -26.9%
Cc1cccc(N(C)S(=O)(=O)c2nnc(NC(=O)C3CCCCC3)s2)c1 -1.87%
CCNc1sc(S(C)(=O)=O)nc1S(=O)(=O)c1ccc(C)cc1 -3.93%
CCCCc1nn2c(=O)cc(COC(=O)c3cccs3)nc2s1 -6.15%
Cc1ccc(Cn2c(=O)n(Cc3ccccc3Cl)c(=O)c3cccnc32)cc1 -7.2%
Cn1c(=O)n(C)c2cc(N3CCCC3)c(NC(=O)Nc3ccccc3)cc21 -4.58%
Clc1cccc(-n2ncc3c(N4CCCCCC4)ncnc32)c1 2.4%
Cc1cc(C(=O)N2CCN(c3cc(Cl)ccc3C)CC2)c2c(C)nn(-c3ccccc3)c2n1 1.03%
CCc1ccc(NC(=O)CCNC(=O)Cn2cnc3ccccc3c2=O)cc1 5.52%
Cc1ccc(CNC(=O)c2cccc(Nc3nc4ccccc4n4nnnc34)c2)cc1 -0.0531%
Cc1ccc(NC(=O)Cn2ncn3c(cc4ccccc43)c2=O)cc1C -3.41%
COC(=O)c1ccccc1NC(=O)Cn1c(=O)n(CCCCC(=O)NCc2ccc3c(c2)OCO3)c(=O)c2ccccc21 6.84%
COc1cc(OC)c(NC(=O)c2c(C)oc3ncnc(N4CCCCC4)c23)cc1Cl 6.8%
Cc1ccc(N2CCN(c3nc4ccccc4c4nnc(C)n34)CC2)c(C)c1 -1.16%
Cn1c(=O)c2c(nc(N3CCOCC3)n2Cc2ccccc2)n(C)c1=O -0.064%
CCOC(=O)c1c(C)[nH]c(C)c1S(=O)(=O)N(C)CC(=O)N1CCN(c2cccc(Cl)c2)CC1 1.83%
Cc1cccc(C)c1NC(=O)Cn1cc(S(=O)(=O)Cc2ccc(F)cc2)c2ccccc21 -2.57%
COc1ccc(C(=O)Nc2nnc(SCc3cc(=O)n4cc(Cl)ccc4n3)s2)cc1 13.7%
